The results in this text go back to PubChem BioAssay (NCI).

Molecules are shown by their SMILES. “And” between values parts separate entries of the source, which are not always exact repeats. Equal values may be shown once.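 Protocol summary: plate cells (96-well), add compound at 5 concentrations, incubate 48 h, interpolate endpoints linearly. GI50 is the concentration that inhibits growth by half. The concentration for full growth arrest is given as TGI.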 A value given as a limit tells only on which side of the number the result lay.

This assay relates to NCI-H322M lung. The experiment in a line: NCI-60 cell line screen, 48 h.
In the case of `OC(c1ccccc1)C1CC2C=CC1C2` (configuration not stated), the TGI was > 100 µM.
The same measure, in the same setting: the same measure for `O=[N+]([O-])c1ccc(NNN=Nc2ccc(-c3nc4ccccc4[nH]3)cc2)c([N+](=O)[O-])c1`: > 100 µM; for `OCC1C2CCC3(OCCO3)C12` (configuration not stated): > 100 µM.
On to `Clc1ccc(C2CC(c3cccc(Nc4ccncc4)c3)=NN2c2ccccc2)cc1` (configuration not stated), for which the GI50 was 1.57 µM and the TGI was 2.91 µM.
The matching figures for `[N-]=[N+]=NCCCn1c2c(c3ccc([N+](=O)[O-])cc3c1=O)C(=O)c1cc(I)ccc1-2`: 25.3 µM and > 100 µM.
The matching figures for `Nc1c(C(=O)c2ccc(C#CCN3CCOCC3)cc2)cnn1-c1ccc(F)cc1`: > 25 µM and > 25 µM.
Consider `O=C(CN1CCN(CCN2C(=O)c3cccc4cccc(c34)C2=O)CC1)Nc1ccc2ncsc2c1`, for which the GI50 is > 100 µM and the TGI is > 100 µM.
`CCCCCCCCCC(=O)NCCc1c[nH]c2ccc(OC)cc12` returned a TGI of 38 µM.
In the case of `O=C(NCCCl)NCCN1c2nc3ccccc3cc2Sc2cc3ccccc3nc21`, the GI50 was 10.1 µM and the TGI was > 49.5 µM.
For `C[C@@H]1CC[C@H]2[C@@H](C)C(OC/C=C/COC3O[C@@H]4O[C@@]5(C)CC[C@H]6[C@H](C)CC[C@@H]([C@H]3C)[C@@]46OO5)O[C@@H]3O[C@@]4(C)CC[C@@H]1[C@]32OO4` (some centres not stated), in that order: 6.37 µM and > 100 µM.
For the compound `O=CC1CCC=CC1NC(=O)OCc1ccccc1` (configuration not stated), the TGI is > 100 µM.
As to `COc1cccc(N2C(=O)/C(=C/c3ccc(N(CCC#N)CCC#N)cc3)N=C2c2cc([N+](=O)[O-])ccc2Cl)c1`, the TGI is > 100 µM.
Same read-out and setting: the figure for `COc1ccc(C(=O)N2CCN(c3ccc4c(c3)OCC(=O)N4)CC2)cc1OC` is > 100 µM.
As to `CCC[CH2][Sn]1([CH2]CCC)[O]C(=O)CN=C(C)c2ccccc2[O]1`, the GI50 is 1.98 µM and the TGI worked out at 3.64 µM.
The matching figures for `N.N.N.N.N.N#Cc1nn[n-]n1.[Cl-].[Co+3]`: > 100 µM and > 100 µM.
With `CN1C(=O)N/C(=C\c2ccc(S(=O)(=O)N/N=C/c3ccccc3)cc2)C1=O`, the TGI was > 100 µM.
For the compound `O=C1CNc2cc(N3CCOCC3)ccc2N1`, the TGI is > 100 µM.
Same read-out and setting: the figure for `COC(=O)[C@H](Cc1ccccc1)NNC(=O)c1csc([C@@H](C[C@H](C(C)C)N(C)C(=O)[C@@H](NC(=O)[C@H]2CCCCN2C)C2CC2)OC(C)=O)n1` is 25 µM and > 100 µM; for `CCOC(=O)NC(=O)c1cn(CCCCCCCCCCC(=O)NCCCN2CCN(CCCNC(=O)CCCCCCCCCCn3cc(C(=O)NC(=O)OCC)c(=O)[nH]c3=O)CC2)c(=O)[nH]c1=O` it is > 100 µM; for `CC(C)(C)C(O)CC(O)(C(F)(F)F)C(F)(F)F` (configuration not stated) it is > 100 µM.
The same measure, in the same setting: the figure for `COc1ccc2nc3c(C)cc4ccccc4n3c2c1` is > 100 µM.
Same read-out and setting: the same measure for `Cc1cccc2c(N)c3cccc(C(=O)NCC[N+](C)(C)Cc4ccc(S(C)(=O)=O)cc4)c3nc12`: > 100 µM; for `NC1=NCC(CN2CCCCC2)O1` (configuration not stated): > 100 µM.
`COC(C)(C)[C@@H]1CCCN1C1=C(C)C(=O)OC1`: the TGI is > 100 µM.
For `CCOC(=O)Nc1ccc2nc(N3CCCCCC3)sc2c1`, the GI50 is 20.6 µM and the TGI was > 100 µM.
For `CC(=O)Nc1ncc2c(n1)-c1ccccc1OC2c1ccccc1` (configuration not stated), the TGI is > 100 µM.
The same measure, in the same setting: the figure for `C/C=C(\C)c1cc(=O)c2c(C)cc3c(c2o1)C(OC)(OC(C)=O)c1c(O)c(C2CC(C)(N(C)C)C(OC(C)=O)C(C)O2)cc(C2CC(N(C)C)C(OC(C)=O)C(C)O2)c1C3=O` (configuration not stated) is 1.6 µM.
As to `COc1cc(N2CCN(C(C)C)CC2)ccc1Nc1nc(Nc2ccc(F)cc2C(=O)NCC(O)CO)c2cc[nH]c2n1` (configuration not stated), the GI50 was 3.12 µM and the TGI was > 25 µM.
As to `O=[N+]([O-])c1cnc(N(CCO)CCO)s1`, the TGI was > 100 µM.
In the case of `Nc1nc(=S)c2ncn(C3OC(CO)C(O)C3O)c2[nH]1` (configuration not stated), the GI50 was 11.6 µM and the TGI was > 100 µM.
As to `CC(NC(=O)C(N)CC(=O)O)C(=O)OC12CC3CC(CC(C3)C1)C2` (configuration not stated), the TGI is > 100 µM.
Take `Cc1ccc(S(=O)(=O)OCC(=O)Nc2ccc(C(=O)O)c(O)c2)cc1`: the GI50 was 66.5 µM and the TGI was 183 µM.
As for `C=C1C[C@@H](O)[C@@H](Br)C(C)(C)[C@]12CCC(C)(Br)C(Cl)C2` (some centres not stated), the GI50 is 19.1 µM; the TGI was > 50 µM and 40.4 µM.
As to `CS(=O)(=O)O[C@H]1C(=O)N(c2cc3c4ccccc4ccc3c3ccccc23)[C@@H]1c1ccccn1`, the GI50 was 16 µM and the TGI is > 100 µM.
In the case of `COc1cc(/C=N/N=C(\N)NO)ccc1O`, the TGI is > 100 µM.
As for `O=C1C[C@@H]2[C@@H](CCC23CCCC3)N1`, the TGI is > 100 µM.
In the case of `O=c1c2cccc(F)c2sc2c(NCCCNCCO)nc3ccccc3c12`, the GI50 is 1.59 µM and the TGI was 3.01 µM.
For `CC(C)(C)[Si](C)(C)OC1[C@@H](O[Si](C)(C)C(C)(C)C)[C@@H](CNC(=O)NC(=O)NC(=O)CCl)O[C@H]1n1cnc2c(NC(=O)Nc3ccccc3)ncnc21` (some centres not stated), in that order: 13.7 µM and 43.9 µM.
On to `COc1cccc(C2c3cc4c(cc3OC(NNC(N)=O)C2C)OCO4)c1O` (configuration not stated), for which the TGI is > 57.7 µM.
Same read-out and setting: the figure for `N#CC(C(=O)CCC(=O)Nc1ccc(Cl)cc1)c1ccc(Cl)cc1` (configuration not stated) is > 100 µM; for `O=S(=O)(O)c1ccc(Nc2ccnc3ccccc23)cc1` it is > 100 µM; for `Cc1ccc2nc(Sc3c([N+](=O)[O-])ncn3C)[nH]c2c1` it is > 100 µM.
The same measure, in the same setting: the same measure for `Clc1cc2nc(C3CCCCO3)[nH]c2cc1Cl` (configuration not stated): 99.5 µM; for `O=C(/C=C\c1ccsc1)c1ccccc1`: 26.5 µM; for `CSC1=C(SC)C(=O)c2cn(C)c(=O)cc2C1=O`: 32.9 µM.
Consider `CC(C)n1nc(C#Cc2cccc(O)c2)c2c(N)ncnc21`, for which the GI50 was 1.64 µM and 1.55 µM; the TGI was 9.61 µM and 5.48 µM.
As for `CC(=O)c1cc(CC2Cc3cc4c(cc3C2=O)CCC4)cc2c1CCC2` (configuration not stated), the TGI was > 100 µM.
As to `COc1ccc(C2=NN(C=O)C(c3ccc(OS(=O)(=O)c4ccc(C)cc4)c(OC)c3)C2)cc1` (configuration not stated), the GI50 was > 100 µM and the TGI is > 100 µM.
In the case of `Cc1ccc(C(=O)C(c2nc3n(c2O)C(=N)N=N3)c2nc3n(c2O)C(=N)N=N3)cc1` (configuration not stated), the TGI is > 100 µM.
As for `O=C(O)CCC(=O)Oc1ccc(O)c2c1CCCC2=O`, the TGI is > 100 µM.
Take `O=C(Nc1ccn(C2CC(I)C(COC(c3ccccc3)(c3ccccc3)c3ccccc3)O2)c(=O)n1)c1ccccc1` (configuration not stated): the TGI is > 31.6 µM.
Still for that read-out and setting: the same measure for `OCC(O)C(O)C(O)C(O)CNCCO/N=C1/C(c2c(O)[nH]c3ccccc23)=Nc2ccccc21` (configuration not stated): > 50 µM.
As to `C=C[C@H]1CN2CCc3c([nH]c4c([C@@H]5CCCN5C)c(O)ccc34)[C@@H]2C[C@@H]1C[C@H]1c2[nH]c3ccccc3c2CCN1C`, the GI50 was 1.82 µM; the TGI was 3.24 µM and 2.93 µM.
In the case of `CCOC(=O)NC(Nc1ccc(S(=O)(=O)Nc2ccc(OC)nn2)cc1)(C(F)(F)F)C(F)(F)F`, the TGI is > 100 µM.
With `CC1(c2nc3ccccc3[nH]2)CCC(C#N)C(C)(C)O1` (configuration not stated), the TGI was > 100 µM.
Consider `Cc1cc(Cl)ccc1NC(=O)CC1SC(=NC(=O)c2ccccc2Cl)NC1=O` (configuration not stated), for which the TGI was > 100 µM.
Still for that read-out and setting: the same measure for `CC(=O)n1nnc2ccc([N+](=O)[O-])cc21`: > 100 µM; for `O=S1(=O)OCCOS(=O)(=O)C1(Cl)Cl`: > 100 µM.
